PubChem BioAssay AID624417 (National Center for Advancing Translational Sciences (NCATS), 2012)
The campaign covered roughly 410,000 compounds. About 6,400 (1.6%) were called active. Inconclusive results, whose numbers are uncertain, are shown with a selection of clear calls. The call rests on the fitted dose curve; in most records, active means well fitted inhibition curve with a large enough effect; inconclusive means small, poorly fitted or top-dose-only effect; inactive means no such curve, though single readings can be large or run the other way. Potencies of inconclusive entries are doubtful fits and often do not repeat.

molecular target: Glucagon-like peptide 1 receptor (Homo sapiens) (UniProt P43220); experiment: qHTS of GLP-1 Receptor Inverse Agonists (Inhibition Mode); conditions: HEK293 GLP-1R CRE-luciferase, luminescence, 24 h, GLP-1R form is constitutively active; activity change, negative = inhibition: at 38.3 µM (top of the series) unless noted; further: nearly all actives have a fitted effect of over 55% in size
Description: The overall goal of this project was to develop a novel assay for discovering small molecule ligands for class B1 G protein-coupled receptors (GPCRs). Very few agonists (or inverse agonists in inhibition mode) with generally weak activity for this entire group of physiologically important receptors are known to date. To establish proof-of-principle that this critical bottleneck can be overcome with a suitable screening approach, our studies focused on the class B1 receptor for glucagon-like peptide-1 (GLP-1R), a potential therapeutic target for diabetes and neurodegenerative disease. The assay was developed using a cell-based functional readout. Toward this goal, stably transfected HEK293 cell clones were established that co-express (i) a cAMP-responsive luciferase reporter gene, and (ii) constitutively active GLP-1R that upon ligand interaction inhibit (inverse agonists) the luciferase activity. In addition, two control cell lines were developed: (i) one that express only the cAMP-responsive reporter gene to enable initial exclusion of GLP-1R independent effects of candidate probes; and (ii) one with the reported gene cloned with another constitutively active orphan receptor GPR119 to enable exclusion of GLP-1R independent inhibitor effects of candidate inverse agonists. To that end, this assay was optimized for 1536-well format and screened against the MLSMR. […] NIH Molecular Libraries Probe Production Network [MLPCN] NIH Chemical Genomics Center [NCGC] Grant: NS064851 PI Name: Martin Beinborn, Tufts Medical Center
Six ul of cell suspension (200 cells/uL in DMEM + 10% Nu serum + 1% pen-strep) is dispensed in a white solid 1536-well plate. The plates are incubated for 12 hours at 37 deg C at 5% CO2 followed by addition of 23 nL compounds. After 24 hr incubation at 37 deg C and 5% CO2, 3 uL of luciferase assay detection reagent is added. A luminescence read is obtained on the PerkinElmer Viewlux after 12 min incubation at room temperature.
On the % scale 0 is the no-effect control and ±100 the full control effect; potency means the concentration at half of the fitted maximal effect; tags describe the fitted curve by direction and shape.

Chain of UniProt P43220 (P43220 whole entry, looked up): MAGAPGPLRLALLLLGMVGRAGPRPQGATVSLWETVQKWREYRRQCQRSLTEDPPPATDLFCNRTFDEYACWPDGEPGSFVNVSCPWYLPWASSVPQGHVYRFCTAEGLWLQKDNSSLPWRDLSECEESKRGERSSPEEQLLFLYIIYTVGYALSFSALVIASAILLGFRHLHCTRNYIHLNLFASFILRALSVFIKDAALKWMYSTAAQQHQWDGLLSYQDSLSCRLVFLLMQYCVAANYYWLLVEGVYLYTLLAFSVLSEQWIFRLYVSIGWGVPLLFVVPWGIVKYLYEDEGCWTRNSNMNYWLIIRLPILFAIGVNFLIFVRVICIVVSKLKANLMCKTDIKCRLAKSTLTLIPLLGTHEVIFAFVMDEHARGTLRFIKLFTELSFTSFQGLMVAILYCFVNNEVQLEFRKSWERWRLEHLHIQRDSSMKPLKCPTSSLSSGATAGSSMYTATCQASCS

Potency, inconclusive:
Cc1ccc(-c2nc3ccccc3c(=O)n2O)cc1 0.562 µM [inhibitor, full curve, poor fit]
CN1CCN(c2nc3ccccc3nc2C(C#N)S(=O)(=O)c2ccccc2)CC1 (stereo not drawn) 1.58 µM [inhibitor, full curve, poor fit]
Cc1ccc(C)c(N(CC(=O)NCc2ccco2)C(=O)CNS(=O)(=O)c2ccc(F)cc2)c1 28.2 µM [inhibitor, single point]
Cc1c(/C(O)=C2/C(=O)C(=O)N(Cc3cccnc3)C2c2ccccn2)cnn1-c1ccccc1 (stereo not drawn) 1 µM [inhibitor, full curve, poor fit]
CN(C)c1nc(-c2ccccc2)ncc1S(=O)(=O)c1ccccc1 11.2 µM [inhibitor, single point]
O=C1[C@@H]2Cc3c([nH]c4ccccc34)C(c3ccc([N+](=O)[O-])cc3)N2C(=O)CN1C1CC1 (stereo partly drawn) 5.62 µM [inhibitor, partial curve, poor fit]
COc1cc(NC(=O)CN2C(=O)CSc3ccc(S(=O)(=O)N4CCCC4)cc32)cc(OC)c1 0.501 µM [inhibitor, full curve, poor fit]
COc1cc(C=c2c3ccccc3n3c2cc(-c2ccccc2)[n+]3C)cc(OC)c1OC 5.62 µM [inhibitor, full curve, poor fit]
COc1ccc(C(=O)N2CCCCC2c2cc(C(=O)NCc3ccccc3)no2)cc1 (stereo not drawn) 11.2 µM [inhibitor, single point]
S=C(Nc1ccccc1)Nc1cc(Cl)ccc1Oc1ccccc1 28.2 µM [inhibitor, single point]
Cc1cc(OCCOCCN2CCCC2)ccc1C(C)C 11.2 µM [inhibitor, partial curve, poor fit]
O=C(Nc1ccc(S(=O)(=O)Nc2nccs2)cc1)c1cc(-c2ccccc2Cl)nc2ccccc12 8.91 µM [inhibitor, partial curve, poor fit]
Cc1ccc(N(CC(=O)Nc2ccccc2-c2ccccc2)S(=O)(=O)c2ccccc2)cc1 8.91 µM [inhibitor, single point]
CCCCCCn1c(O)c(/C=C2\C=NN=C2c2ccccc2)sc1=S 20 µM [inhibitor, single point]
CCN(CC(=O)Nc1c(F)cccc1F)C(=O)c1cccc(S(=O)(=O)N2CCCc3ccccc32)c1 14.1 µM [inhibitor, partial curve, poor fit]
Cc1ccc(SCc2[nH]nc3c2C(C(C)C)C(C#N)=C(N)O3)cc1 (stereo not drawn) 6.31 µM [inhibitor, partial curve, poor fit]
CCOc1cccc(C(=O)N(Cc2ccc(CC)cc2)C2CCS(=O)(=O)C2)c1 (stereo not drawn) 10 µM [inhibitor, partial curve, poor fit]
Cc1nn(CC(C)C)c2sc(C(=O)NC3CC(C)(C)NC(C)(C)C3)cc12 28.2 µM [inhibitor, single point]
COc1ccccc1NC(=O)CSC1=Nc2ccccc2C2=NC(CCC(=O)NCc3cccs3)C(=O)N12 (stereo not drawn) 7.94 µM [inhibitor, partial curve, poor fit]
CCn1c2ccccc2c2cc(NC(=O)COc3ccccc3)ccc21 12.6 µM [inhibitor, partial curve, poor fit]
O=C(NCc1ccccc1)C1C(c2ccc3c(c2)OCO3)=Nc2ccccc2N1C(=O)c1cccc2ccccc12 (stereo not drawn) 31.6 µM [inhibitor, single point]
CC(C)c1ccccc1NC(=O)c1ccccc1NC(=O)C1CCCCC1 11.2 µM [inhibitor, partial curve, poor fit]
CC1(OC(=O)C2CCCC2)C(=O)C=C2C=C(c3ccsc3)N(C3CCCC3)C=C2C1=O (stereo not drawn) 8.91 µM [inhibitor, single point]
O=C(Nc1ccc(N2CCN(C(=O)c3ccco3)CC2)c(Cl)c1)c1c(F)c(F)c(F)c(F)c1F 11.2 µM [inhibitor, single point]
Cc1ccc([C@@H]2CC=C(C(=O)O)[C@H](c3ccccc3F)N2S(=O)(=O)c2ccccc2C)cc1 10 µM [inhibitor, partial curve]
CCCCN(CC)C(=O)Cn1ncc2c3ccccc3n(CCC)c2c1=O 28.2 µM [inhibitor, single point]
COc1cccc(NC(=O)CN(C)C(=O)c2sc3cc(Cl)ccc3c2Cl)c1 10 µM [inhibitor, partial curve, poor fit]
Fc1ccccc1Cn1nnc2c(NCc3ccccn3)ncnc21 10 µM [inhibitor, single point]
CCCc1cc(C(=O)Nc2ccc(C(=O)c3ccccc3)cc2)n(C)n1 12.6 µM [inhibitor, partial curve, poor fit]
O=C(Oc1cc(=O)oc2ccccc12)c1ccccc1 7.94 µM [inhibitor, partial curve, poor fit]
Cc1ccc(CNC(=O)c2ccc(CSCc3ccccc3C)o2)cc1 28.2 µM [inhibitor, single point]

Potency, inactive:
COc1ccc2nc(SCc3ccccc3C)nc(C)c2c1
Cc1cc(C(=O)NNC(=O)c2ccc(C)c([N+](=O)[O-])c2)c(C)o1
COC(=O)c1sccc1NC(=O)c1c(F)c(F)c(F)c(F)c1F
COc1ccc(NC(=O)c2ccc(CN3CCN(c4ccccc4)CC3)cc2)cc1OC
COc1ccccc1C(=O)N1CCN(Cc2cc(=O)oc3cc(C)ccc23)CC1
O=[N+]([O-])c1c(C(Cl)Cl)nn(-c2ccccc2)c1N1CCCC1

Activity change, negative = inhibition, inconclusive:
CCCCN(CC)C(=O)Cn1ncc2c3ccccc3n(CCC)c2c1=O -78.8% [inhibitor]
